The whole screen tested about 7,900 compounds, of which about 400 (5.1%) showed an effect of 50% or more. The list shows a part of the results.

Chain of Parkinson's disease protein 7 (PARK7/DJ1) (Q99497 whole entry, looked up, the tested form may be a part): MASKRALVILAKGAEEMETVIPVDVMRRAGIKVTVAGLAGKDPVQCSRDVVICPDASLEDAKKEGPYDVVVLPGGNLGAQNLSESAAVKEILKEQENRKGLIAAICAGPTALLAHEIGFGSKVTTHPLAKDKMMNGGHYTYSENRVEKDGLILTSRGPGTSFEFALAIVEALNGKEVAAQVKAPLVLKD

For this test, the target named is Parkinson's disease protein 7 (PARK7/DJ1) (human, UniProt Q99497). Briefly: primary screen, percent inhibition; read as competition with a fluorescent probe by fluorescence polarization; higher = more effect of the substance. Particulars: 100 µM. In short, it runs like this:
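Fluorescence-polarization probe displacement (JYQ-107, 20 nM final, 2 h) after 2 h preincubation of PARK7 (0.2 μM final) with each fragment at 100 μM final. Read-out ex/em 480/520 nm; remaining activity derived from FP signal loss relative to reference controls.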
In the case of `CNC(=O)c1ccc(C=C(C#N)c2ccccn2)cc1`, the Inhibition % is given as 19.5%.

In the case of `C=CC(=O)N1CCN(C)Cc2cccnc21`, the Inhibition % stood at 20.2%.

Take `C=CC(=O)N1CC(C)(C)O[C@@H]2COC[C@H]21` (racemic): the Inhibition % is listed as 4.11%.

As to `C=CC(=O)N1CCC(C(=O)NC)C1` (centres unmarked), the Inhibition % stood at 2.58%.

Turning to `CSc1ccccc1NC(=O)CCn1cnc(C#N)n1`, the Inhibition % is on record as 6.66%.

Take `CN(Cc1ncnn1C)S(=O)(=O)C=Cc1ccccc1`: the Inhibition % is reported as 3.12%.

As for `CC1CCC(O)(Cn2cnc(C#N)n2)CC1` (centres unmarked), the Inhibition % is 5.82%.

For `C=CC(=O)N1Cc2ccccc2C(C)(C)C1`, the Inhibition % is 9.47%.

As to `Cc1cc(C#N)nn1C`, the Inhibition % amounted to 5.45%.

In the case of `O=C1CC(C2CC2)=NO1`, the Inhibition % is 11.4%.

With `C=CC(=O)NC1C(C)OC(C)C1C` (centres unmarked), the Inhibition % came to 6.51%.

`O=C(CCCl)Nc1ccc(N2CCOCC2)cc1`: the Inhibition % came out at 2.86%.

With `N#Cc1nccnc1SC1CCCC1`, the Inhibition % is reported as 6.92%.

As for `O=C(C=Cc1csc(-c2ccc(F)cc2)n1)N1CCC1`, the Inhibition % was 13.5%.

As to `N#Cc1nccn1CC(=O)c1ccccc1F`, the Inhibition % is given as 0.898%.

Turning to `C=CC(=O)NCCn1nc2ccccn2c1=O`, the Inhibition % stood at 7.98%.

As for `CNC(=O)C(C#N)=Cc1ccc(N2CCOCC2)cc1`, the Inhibition % was found to be 4.34%.

On to `O=C(CC1SC(=O)NC1=O)Nc1ccccc1` (centres unmarked), for which the Inhibition % was found to be 82.7%.

With `Cc1cc(NS(=O)(=O)C2=CCCCC2)c[nH]c1=O`, the Inhibition % was found to be 48.5%.

Take `C=CC(=O)N(Cc1ccco1)c1nccs1`: the Inhibition % turned out to be 6.14%.

As for `C=CC(=O)N1CCC(C2CCCO2)CC1` (centres unmarked), the Inhibition % was found to be 5.38%.

In the case of `C=CC(=O)NCCCn1ccnc1`, the Inhibition % is -0.252%.

Regarding `CCC1C(=O)NCCN1Cc1cccc(C#N)n1` (centres unmarked), the Inhibition % amounted to 35.8%.

Turning to `Cc1ccc(C2CN(C(=O)c3cccnc3S)CCO2)o1` (centres unmarked), the Inhibition % is 8.62%.

On to `CC(=O)NCCc1ccc(C(=O)CCl)s1`, for which the Inhibition % was found to be 90.4%.

For `N#CC(=Cc1cccnc1)c1nc(-c2ccncc2)cs1`, the Inhibition % was 6.31%.

Consider `CC1(C)OB(c2ccc(-n3cccn3)cc2)OC1(C)C`, for which the Inhibition % came out at 5.51%.

Consider `N#Cc1ncn(CC(=O)c2ccc(F)c(F)c2)n1`, for which the Inhibition % is 5.82%.

On to `COc1cc(C)c(S(=O)(=O)n2ccnc2)cc1C(C)C`, for which the Inhibition % is given as 2.99%.

In the case of `O=C1NCCN1CCCl`, the Inhibition % turned out to be 4.06%.

As for `CN1CCOC(CS)C1` (centres unmarked), the Inhibition % stood at 0.301%.

Take `CCc1cc(SC#N)ccc1N`: the Inhibition % is listed as -1.87%.

In the case of `C=CC(=O)N1CCCC(N(C)Cc2noc(C)n2)CC1` (centres unmarked), the Inhibition % stood at 1.13%.

With `COc1ccc(F)cc1S(=O)(=O)n1nc(C)cc1C`, the Inhibition % stood at 1.8%.

For the compound `N#CN(CC(=O)N1CCNC1=O)c1ccccc1`, the Inhibition % is 3.42%.

With `c1ccc(N2CCN(CC3OCCO3)CC2)cc1`, the Inhibition % is reported as 5.86%.

With `C=CC(=O)NC(C)C1=CCN(C)CC1` (centres unmarked), the Inhibition % worked out at 13%.

As to `Cl.Cl.N#Cc1ccc(N2CCNCC2)cn1`, the Inhibition % worked out at 5.75%.

Regarding `CC(C)c1nn(C)cc1B1OC(C)(C)C(C)(C)O1`, the Inhibition % was 2.59%.

Turning to `CN(C)C(=O)c1ccc(CN2C(=O)CCC2=O)cc1`, the Inhibition % is listed as 2.25%.

In the case of `C=CC(=O)NC1c2ccccc2CCC1n1ccnc1` (centres unmarked), the Inhibition % stood at 10.6%.

For `CNC(=O)C(C#N)=Cc1cccc(-c2ccncc2)c1`, the Inhibition % amounted to 9.17%.

Consider `c1ccc(C23CCOCC2O3)cc1` (centres unmarked), for which the Inhibition % is listed as -0.0704%.

As to `COC(=O)c1cc(B2OC(C)(C)C(C)(C)O2)ccc1C`, the Inhibition % stood at 5.14%.

Consider `CC(C#N)NS(=O)(=O)c1cccc(S(=O)(=O)F)c1` (centres unmarked), for which the Inhibition % turned out to be 102%.

Regarding `CCCOc1cc(S(=O)(=O)n2ccc(C)n2)ccc1Cl`, the Inhibition % is 2.03%.

As to `CC1(C)OB(c2cc(CN3CCCC3)ccc2F)OC1(C)C`, the Inhibition % is on record as 3.85%.

As for `C=CC(=O)N1CC(C2CCOCC2)C1`, the Inhibition % was -1.92%.

With `C=CC(=O)Nc1ccc2nc(C)nn2c1`, the Inhibition % is 12.2%.

On to `CCC(=O)N1CCC(NC(=O)c2cccnc2S)C1` (centres unmarked), for which the Inhibition % stood at 5.25%.

Consider `Cc1cc(NC(=O)c2cccnc2S)ccc1O`, for which the Inhibition % turned out to be 7.89%.

Regarding `O=C(CC1OCCCO1)N1CCCC1c1cccc(Cl)c1` (centres unmarked), the Inhibition % worked out at 5.91%.

Turning to `C=CC(=O)N[C@H]1C[C@H]1C(F)F` (racemic), the Inhibition % was 1.96%.

For the compound `C=CC(=O)N1CCCC(c2ccccc2)CC1` (centres unmarked), the Inhibition % was 4.3%.

In the case of `C1CCC(C2OCCO2)NC1` (centres unmarked), the Inhibition % worked out at 5.75%.

For the compound `C=CC(=O)N1CCN(Cc2ccc(Cl)cn2)CC1`, the Inhibition % amounted to 19.7%.

Turning to `O=C(NC1CCSC1)N1CCC(C2OCCO2)CC1` (centres unmarked), the Inhibition % worked out at 8.19%.

`N#CC(=Cc1ccco1)C(N)=O`: the Inhibition % is listed as 2.61%.

In the case of `CS(=O)(=O)C(C#N)=Cc1ccc(-c2ccc(Cl)cc2)o1`, the Inhibition % is on record as 4.14%.

In the case of `O=C(CCN1C(=O)CCC1=O)Nc1ccc(F)cc1F`, the Inhibition % is on record as 0.402%.

Consider `CCCn1c(N)c(C(=O)CCl)c(=O)n(C)c1=O`, for which the Inhibition % was determined as 38.9%.

As to `CN1C(=O)c2ccc(NC(=O)CCl)cc2C1=O`, the Inhibition % is 40.5%.

`CC(C)N1CCN(c2oc(-c3ccco3)nc2C#N)CC1`: the Inhibition % is reported as 10%.

With `O=C(CCl)NCc1cc(Br)cs1`, the Inhibition % worked out at 4.52%.

Consider `C=CC(=O)NC1CCN2CCCC2C1` (centres unmarked), for which the Inhibition % came out at 7.06%.

On to `COc1ccc2cc(CN(C)C(=O)CCl)ccc2c1`, for which the Inhibition % turned out to be 8%.

As for `O=S(=O)(F)c1nc2ccccc2s1`, the Inhibition % came to 12.9%.

Consider `N#Cc1nccc(N)n1`, for which the Inhibition % is 29.7%.

With `FC(F)(F)c1cccc(C2CO2)c1` (centres unmarked), the Inhibition % was 2.09%.

Regarding `CC(C)(C)n1cc(B2OC(C)(C)C(C)(C)O2)cn1`, the Inhibition % was 7.39%.

With `Cc1cc2ncn(C(=O)N(C)C)c2cc1C`, the Inhibition % was 0.109%.

For the compound `CC1(C)OB(c2ccc(OCCCN3CCCC3)cc2)OC1(C)C.Cl`, the Inhibition % turned out to be 4.22%.

As to `O=C(O)c1csc(C(=O)CCl)c1`, the Inhibition % is 102%.

On to `O=C(CCl)N(C1CCCC1)C1CCS(=O)(=O)C1` (centres unmarked), for which the Inhibition % came out at 7.16%.

As for `Cn1c(SC2CCOC2=O)nnc1C(F)(F)F` (centres unmarked), the Inhibition % was 6.64%.

For the compound `COc1ccc(C)cc1NC(=O)CCl`, the Inhibition % is reported as 14.5%.

In the case of `C=CC(=O)NC1CCCN(c2ccccc2Cl)C1` (centres unmarked), the Inhibition % is 8.31%.

With `COC(=O)C1(NC(=O)CCl)CCCCC1`, the Inhibition % is listed as 32.3%.

In the case of `C=CC(=O)N1CCN(Cc2nccn2C)CC1`, the Inhibition % was 4.84%.

Take `C=CC(=O)NCc1nn(-c2ccccc2)c2c1CCC2`: the Inhibition % amounted to 5.96%.

Take `CSc1ccc(C=C(C#N)S(N)(=O)=O)cc1`: the Inhibition % was determined as 8.82%.

As for `C=CC(=O)N1CCCC(n2cc(C)cn2)C1` (centres unmarked), the Inhibition % stood at 10.7%.

On to `N#CN(CC(=O)N1CCCCCC1)c1ccccc1`, for which the Inhibition % came out at 7.03%.

As for `C=CC(=O)NCCN(C)S(=O)(=O)c1cccs1`, the Inhibition % is recorded as 7.66%.

Turning to `C=CC(=O)NCC1CCC(C)(C)CO1` (centres unmarked), the Inhibition % is on record as 28.6%.

On to `O=S(=O)(Oc1ccc(F)c(F)c1)c1cncc(F)c1`, for which the Inhibition % was 4.3%.

Regarding `C=CC(=O)N1CCCC(c2nc(C)no2)C1` (centres unmarked), the Inhibition % is recorded as 6.59%.

`CC(=O)Nc1cccc(NC(=O)CCl)c1`: the Inhibition % is on record as 19.2%.

With `N#CN(C[C@H]1C[C@@H](O)C1)c1ccc(F)cc1`, the Inhibition % is given as 3.41%.

In the case of `C=CC(=O)N1CCOc2ccc(C)cc2C1`, the Inhibition % was 4.58%.

For `C=CCOc1ccc(Oc2nccnc2C#N)cc1`, the Inhibition % was determined as 6.2%.

Take `Cc1cccc(B2OC(C)(C)C(C)(C)O2)c1Cl`: the Inhibition % stood at 5.32%.

Turning to `O=C(CCl)Nc1ccc2c(c1)CCC2`, the Inhibition % was 57.8%.

As to `CC1(C)OB(c2cccc3c2OCO3)OC1(C)C`, the Inhibition % is -1.61%.

In the case of `Cc1ccc(C=C(C#N)c2ccccn2)o1`, the Inhibition % worked out at 23.3%.

In the case of `CCCNC(=O)C(C#N)=Cc1ccc(O)nc1`, the Inhibition % was found to be 11.6%.

Regarding `C=CC(=O)NC1CCN(c2nnnn2C)CC1`, the Inhibition % turned out to be 11%.

As to `C=CC(=O)N[C@H]1CCO[C@@H]1c1ccnn1CC1CC1`, the Inhibition % was -2.72%.

For `NC(=O)C1CCN(C(=O)Oc2ccccc2)CC1`, the Inhibition % amounted to 0.775%.

`Cc1c(NC(=O)CCCl)c(=O)n(-c2ccccc2)n1C`: the Inhibition % was determined as 3.62%.

In the case of `C=CC(=O)Nc1ccnn1C`, the Inhibition % came out at 7.37%.

In the case of `Cc1cnccc1NS(=O)(=O)c1ccc(S(=O)(=O)F)cc1`, the Inhibition % turned out to be 18.9%.

As for `C=CC(=O)N1CCCC(c2n[nH]c(=O)o2)C1` (centres unmarked), the Inhibition % is 1.49%.

For `O=S(=O)(F)c1ccc2[nH]ncc2c1`, the Inhibition % is given as 53%.

Consider `C=CC(=O)N1CCOC(C(F)F)CC1` (centres unmarked), for which the Inhibition % came out at 4.09%.

Consider `N#Cc1c(N2CCCC(CC(N)=O)C2)nc2ccccn12` (centres unmarked), for which the Inhibition % is recorded as 2.1%.

With `C=CC(=O)NCc1nccc2c1CCCC2`, the Inhibition % stood at 5.36%.

Consider `C=CC(=O)N1CCC(c2cccnc2)CC1`, for which the Inhibition % is 11.5%.

Consider `COc1cccc(Cn2cnc(C#N)n2)c1`, for which the Inhibition % turned out to be 4.76%.

With `C=CC(=O)NCC1CCN(c2ccccc2)CC1`, the Inhibition % is 3.72%.

In the case of `C=CC(=O)Nc1cccc2c1CCO2`, the Inhibition % was found to be 3.25%.

Turning to `O=C1SCCN1CN1CC=C(c2ccccc2)CC1`, the Inhibition % is recorded as 2.16%.

As for `C=CC(=O)Nc1cc(F)cc(N2CCOCC2)c1`, the Inhibition % amounted to 6.03%.

Take `COc1ccc(N2CC(N)C2=O)cc1.Cl` (centres unmarked): the Inhibition % is given as -4.76%.

For the compound `Cc1cnc2ccccc2c1S(=O)(=O)F`, the Inhibition % is on record as 95.2%.

For the compound `COc1ccc(Cl)c(S(=O)(=O)OCC(F)(F)F)c1`, the Inhibition % came out at 7.55%.

Regarding `C=CC(=O)NCC1CCCCS1` (centres unmarked), the Inhibition % was determined as 8.11%.

With `O=C(CCl)NC(=O)NCCc1cccs1`, the Inhibition % is listed as 11.2%.

In the case of `Cl.O=S(=O)(F)CC1CNCCO1` (centres unmarked), the Inhibition % is recorded as 11%.

Consider `CC(=O)Nc1ccc(C=C(C#N)C(N)=O)cc1`, for which the Inhibition % was 6.27%.

Take `COc1ccccc1C(C)NC(=O)CCl` (centres unmarked): the Inhibition % was 10.5%.

Regarding `C=CC(=O)N[C@@H]1CCCN(S(=O)(=O)C2CC2)C1`, the Inhibition % was 2.73%.

In the case of `C=CC(=O)N1CCN(S(C)(=O)=O)CC1(C)C`, the Inhibition % is 4.46%.

On to `Cc1cc(C)c(C#N)c(S)n1`, for which the Inhibition % worked out at 4.97%.

In the case of `CCn1ncnc1CN(C#N)c1ccc(F)cc1`, the Inhibition % was determined as 6.79%.

The values are drawn from publication PMC9574860, “Chemical Toolkit for PARK7: Potent, Selective, and High-Throughput” (Journal of Medicinal Chemistry, 2022).
